# Data published in PMC6664820, “Novel natural and synthetic inhibitors of solute carriers SGLT1 and SGLT2” (Pharmacology Research & Perspectives, 2019).
# Out of some 1,900 compounds screened, about 40 (2%) showed an effect of 50% or more. The list shows a part of the results. Residues, ends and D or L forms follow the SMILES beside them.
# Molecular target: human SGLT1 (hSGLT1) (human, UniProt P13866)
# Assay: primary screen, percent of control activity; higher = less effect of the substance
# Set-up: single well
# Conditions: 50 µM
# Outline: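 Single-point screen at 50 µmol/L in CHO-hSGLT1 cells, with 160 µmol/L 1-NBD-glucose in glucose-free DMEM for 90 min at 37°C. Fluorescence from isopropanol extracts was calibrated, and CHO wild-type uptake was subtracted. Data are percent of uptake without compound.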
# Sequence of human SGLT1 (hSGLT1) (P13866 whole entry, looked up): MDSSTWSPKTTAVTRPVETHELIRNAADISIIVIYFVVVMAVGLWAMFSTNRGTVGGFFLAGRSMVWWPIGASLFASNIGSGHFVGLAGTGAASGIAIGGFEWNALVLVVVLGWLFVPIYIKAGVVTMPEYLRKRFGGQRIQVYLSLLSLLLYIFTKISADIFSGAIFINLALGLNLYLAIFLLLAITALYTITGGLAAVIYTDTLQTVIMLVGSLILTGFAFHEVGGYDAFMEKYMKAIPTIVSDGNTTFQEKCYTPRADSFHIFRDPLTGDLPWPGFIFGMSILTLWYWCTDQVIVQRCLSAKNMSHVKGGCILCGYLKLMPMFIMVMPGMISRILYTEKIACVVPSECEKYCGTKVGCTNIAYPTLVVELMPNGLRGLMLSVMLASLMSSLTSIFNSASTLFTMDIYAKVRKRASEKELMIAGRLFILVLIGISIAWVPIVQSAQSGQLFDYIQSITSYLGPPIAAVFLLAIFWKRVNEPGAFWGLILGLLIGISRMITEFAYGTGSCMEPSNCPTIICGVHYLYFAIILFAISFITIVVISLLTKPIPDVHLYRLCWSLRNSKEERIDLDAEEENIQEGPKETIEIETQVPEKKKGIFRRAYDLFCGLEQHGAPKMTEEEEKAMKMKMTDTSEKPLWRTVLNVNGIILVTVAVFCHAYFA
row,SMILES,NORMALIZED SGLT1 ACTIVITY (%)
1,CC(C)c1ccc2c(c1)CCC1C(C)(C(N)=O)CCCC21C (centres unmarked),136
2,O=c1c(O)cc([C@H]2Oc3cc(O)cc(O)c3C[C@H]2O)cc2c([C@H]3Oc4cc(O)cc(O)c4C[C@H]3O)cc(O)c(O)c12,130
3,CN(Cc1cnc2nc(N)nc(N)c2n1)c1ccc(C(=O)N[C@@H](CCC(=O)O)C(=O)O)cc1,94
4,CN1C[C@H](C(=O)N[C@]2(C)O[C@@]3(O)[C@@H]4CCCN4C(=O)[C@H](Cc4ccccc4)N3C2=O)C[C@@H]2c3cccc4[nH]cc(c34)C[C@H]21.CS(=O)(=O)O,230
5,CC(=O)O[C@H]1CC[C@]2(C)C3=CC(=O)[C@@]4(C)C(C[C@@H]5OC6(OCC(C)CC6Br)[C@@H](C)[C@@H]54)C3CC[C@H]2C1 (some centres unmarked),164
6,O=C1CCc2cc(OCCCCc3nnnn3C3CCCCC3)ccc2N1,231
7,CCCCOc1cc(CC2CNC(=O)N2)ccc1OC (centres unmarked),157
8,CCOc1ccc(C(=O)c2ccc(O)c(O)c2O)cc1,324
9,COc1cc([C@@H]2c3cc4c(cc3[C@@H](O[C@@H]3O[C@@H]5CO[C@@H](c6cccs6)O[C@H]5[C@H](O)[C@H]3O)[C@H]3COC(=O)[C@H]23)OCO4)cc(OC)c1O,317
10,CC1(C)C(=O)[C@@H]2C[C@@]3(O)C4=CC(=O)O[C@@H](c5ccoc5)[C@]4(C)CCC3[C@@](C)(C2=O)[C@H]1CC(=O)O (some centres unmarked),110
11,O=C(O)COc1ccc(Cl)cc1Cl,196
12,CCOC(=O)c1c(C)cc(O)cc1O,175
13,C[C@]12C=CC(=O)C=C1CCC1C2C(=O)C[C@@]2(C)C1CC[C@]2(O)C(=O)CO (some centres unmarked),127
14,O=C(O[C@@H]1Cc2c(O)cc(O)cc2O[C@@H]1c1cc(O)c(O)c(O)c1)c1cc(O)c(O)c(O)c1,134
15,CCc1ccc(CCOc2ccc(CC3SC(=O)NC3=O)cc2)nc1.Cl (centres unmarked),179
16,COc1cc(/C=C/C(=O)O)ccc1O,147
17,C[C@H](CCC(=O)O)[C@H]1CCC2C3C(CC[C@@]21C)[C@@]1(C)CC[C@@H](O)C[C@H]1C[C@H]3O (some centres unmarked),231
18,CCCNCC(O)COc1ccccc1C(=O)CCc1ccccc1.Cl (centres unmarked),77
19,COC(=O)[C@]1(C)CC[C@]2(C)CC[C@]3(C)C4=CCc5c(cc(OC(C)=O)c(OC(C)=O)c5C)[C@]4(C)CC[C@@]3(C)C2C1 (some centres unmarked),116
20,CC(=O)c1c(O)cc(O)cc1O,144
21,O=c1c(-c2cc(O)c(O)c(O)c2)coc2cc(O)c(O)c(O)c12,134
22,CC(C)[C@H](N)C(=O)N[C@@H](Cc1c[nH]c2ccccc12)C(=O)O (H-Val-Trp-OH),97
23,CC(=O)Nc1nnc(S(N)(=O)=O)s1,107
24,C/C=C/c1ccc(OC)cc1,191
25,CC1=C2[C@H]3OC(=O)[C@@H](C)[C@@H]3CC[C@@]2(C)C=CC1=O,101
26,c1ccc2c(c1)cc1ccc3cccc4ccc2c1c34,186
27,CC(=O)Oc1cc(OC(C)=O)c2c(c1)O[C@H](c1ccc(OC(C)=O)c(OC(C)=O)c1)[C@@H](OC(C)=O)C2,62

row,SMILES,NORMALIZED SGLT1 ACTIVITY (%)
1,Cc1cc(=O)[nH]c(=S)[nH]1,112
2,NS(=O)(=O)c1cc2c(cc1C(F)(F)F)NC(Cc1ccccc1)NS2(=O)=O (centres unmarked),125
3,CC(=O)Oc1ccc(/C=C/c2cc(OC(C)=O)cc(OC(C)=O)c2)cc1,222
4,C[N+](C)(C)CCCCCC[N+](C)(C)C.[Br-].[Br-],95
5,COc1cc(S(C)=O)ccc1-c1nc2cccnc2[nH]1 (centres unmarked),237
6,CC(=O)O[C@H]1CC[C@]2(C)C3CC[C@@]4(C)C(CC5O[C@@]6(CCC(C)CO6)[C@@H](C)C54)C3CC[C@@H]2C1 (some centres unmarked),94
7,Cn1c(=O)c2c(ncn2C)n(C)c1=O,178
8,CCCSc1ccc2nc(NC(=O)OC)[nH]c2c1,124
9,COc1c(N2CCNC(C)C2)c(F)cc2c(=O)c(C(=O)O)cn(C3CC3)c12 (centres unmarked),125
10,COC(=O)C[C@H]1C(C)(C)[C@@H](OC(C)=O)[C@@H]2CC3C4CC(=O)O[C@@H](c5ccoc5)[C@]4(C)CCC3[C@@]1(C)C2=O (some centres unmarked),111
11,NS(=O)(=O)c1cc(C2(O)NC(=O)c3ccccc32)ccc1Cl (centres unmarked),132
12,Cl.NCCc1ccc(O)c(O)c1,99
13,CC[C@@]1(C2O[C@@H](C3O[C@@](O)(CC)[C@H](C)C[C@@H]3C)C[C@@H]2C)CC[C@H]([C@]2(C)CCC3(C[C@H](O)[C@@H](C)[C@@H]([C@H](C)[C@@H](OC)[C@H](C)C(=O)[O-])O3)O2)O1.[Na+] (some centres unmarked),156
14,C[C@@H]1CC[C@@]2(OC1)O[C@H]1CC3C4CC[C@H]5C[C@@H](O)CC[C@]5(C)C4CC[C@]3(C)[C@H]1[C@@H]2C (some centres unmarked),151
15,CC(C)=CCc1c(O)cc(C)oc1=O,102
16,O=C(O[C@@H]1Cc2c(O)cc(O)cc2O[C@@H]1c1cc(O)c(O)c(O)c1-c1c([C@H]2Oc3cc(O)cc(O)c3C[C@H]2O)cc(O)c(O)c1O)c1cc(O)c(O)c(O)c1,105
17,Oc1c(Cl)cc(Cl)c(Cl)c1Cc1c(O)c(Cl)cc(Cl)c1Cl,-43
18,CSCCC(NC=O)C(=O)NC(CC(C)C)C(=O)NC(Cc1ccccc1)C(=O)O (centres unmarked),125
19,O=C(CCCCCCCCCCCCC1CCCC1)Nc1ccc(S(=O)(=O)c2ccc(NC(=O)CCCCCCCCCCCCC3CCCC3)cc2)cc1,128
20,O=C(O)c1cc(O)c(O)c(O)c1,112
21,CC1=NN(c2ccccc2)C(=O)C1,113
22,COC(=O)C[C@H]1C(C)(C)C2(Cl)O[C@@]34CC2C(=O)[C@]1(C)C3CC[C@]1(C)C4=CC(=O)O[C@H]1c1ccoc1 (some centres unmarked),116
23,C=C1C2CC[C@@]3(C)[C@H](c4ccoc4)OC(=O)C[C@]13O[C@H]1CC(=O)C(C)(C)[C@H](C(OC(C)=O)C(=O)OC)[C@@]21C (some centres unmarked),197
24,CC1CCC2(OC1)OC1CC3C4CCC5C[C@@H](O)CCC5(C)C4=CCC3(C)C1[C@@H]2C (some centres unmarked),89
25,COc1cc2c(cc1OC)[C@@H]1C(=O)c3ccc(O)c(CC=C(C)C)c3O[C@@H]1CO2,206
26,COc1cc2c(c(OC)c1OC)-c1ccc(O)c(=O)cc1[C@@H](NC(C)=O)CC2,103
27,CC1(C)C=CC(=O)[C@@]2(C)C1CC(=O)[C@]1(C)C2CC[C@@]2(C)[C@H](c3ccoc3)OC(=O)[C@H]3O[C@]321 (some centres unmarked),85

row,SMILES,NORMALIZED SGLT1 ACTIVITY (%)
1,OCc1ccccc1O,108
2,COc1cc2c(cc1OC)C(=O)c1ccc(OC)c(OC)c1OCC(=O)C2,169
3,O=C(O[C@@H]1Cc2c(O)cc(O)cc2O[C@@H]1c1ccc(O)c(O)c1)c1cc(O)c(O)c(O)c1,115
4,O=C(O)c1ccc(S(=O)(=O)N(Cl)Cl)cc1,89
5,NC(CSCSCC(N)C(=O)O)C(=O)O (centres unmarked),117
6,COC(=O)[C@H](c1ccccc1Cl)N1CCc2sccc2C1.O=S(=O)(O)O,58
7,NC(=O)c1cccc(N)c1,87
8,CC(C(=O)O)c1ccc2c(c1)[nH]c1ccc(Cl)cc12 (centres unmarked),331
9,Cc1onc(-c2ccccc2)c1C(=O)NC1C(=O)N2[C@@H]1SC(C)(C)[C@@H]2C(=O)[O-].[Na+] (some centres unmarked),88
10,CCCCCc1c2c(cc(O)c1C(=O)O)OC(=O)c1c(cc(OC)cc1C(=O)CCCC)O2,152
11,COc1ccc(C[C@H](N)C(=O)N[C@@H]2[C@@H](CO)OC(n3cnc4c(N(C)C)ncnc43)[C@@H]2O)cc1.Cl.Cl (some centres unmarked),116
12,CC[C@@H]1C(=O)OC[C@@H]1Cc1cncn1C.O=[N+]([O-])O,110
13,O=C(O)Cc1nn(Cc2ccc(Br)cc2F)c(=O)c2ccccc12,180
14,CCCCCCCC/C=C/CCCCCCCCOP(=O)([O-])OCC[N+](C)(C)C,99
15,CC(=O)OCC(=O)[C@H]1CC[C@H]2[C@@H]3CCC4=CC(=O)CC[C@]4(C)[C@H]3CC[C@]12C,114
16,C=C1C2CC[C@@]3(C)[C@H](c4ccoc4)OC(=O)C[C@]13O[C@H]1CC(=O)C(C)(C)[C@H](C(O)C(=O)OC)[C@@]21C (some centres unmarked),112
17,CC1(C)[C@@H](OC(=O)CCC(=O)O)CC[C@]2(C)[C@H]3C(=O)C=C4[C@@H]5C[C@@](C)(C(=O)O)CC[C@]5(C)CC[C@@]4(C)[C@]3(C)CC[C@@H]12,91
18,COc1ccc(Cl)cc1C(=O)NCCc1ccc(S(=O)(=O)NC(=O)NC2CCCCC2)cc1,132
19,CC(=O)OCC1=C(C(=O)[O-])N2C(=O)[C@@H](NC(=O)CCCC(N)C(=O)O)C2SC1.[Na+] (some centres unmarked),106
20,CC(=O)O[C@@H]1CC2C(C)(C)C(=O)[C@@H]3O[C@@H]3[C@]2(C)C2CC[C@]3(C)C(=CC(=O)O[C@H]3c3ccoc3)[C@@]21C (some centres unmarked),221
21,COC(=O)C1=C(C)NC(C)=C(C(=O)OCCN(C)Cc2ccccc2)C1c1cccc([N+](=O)[O-])c1.Cl (centres unmarked),93
22,C=C1C(=O)OC2CC1C(OC(C)=O)C/C(C)=C/CC/C(C)=C/CC[C@]2(C)O (some centres unmarked),107
23,CN(C)CCOC(=O)COc1ccc(Cl)cc1.Cl,124
24,CC(=O)O[C@@H]1CC(=O)[C@@]2(C)C(CC(=O)[C@]3(C)C2CC[C@@]2(C)[C@H](c4ccoc4)OC(=O)C4OC423)C1(C)C (some centres unmarked),92
25,CC[C@@]1(O)C[C@H](O[C@H]2C[C@H](N(C)C)[C@H](O)[C@H](C)O2)c2c(cc3c(c2O)C(=O)c2c(O)cccc2C3=O)[C@H]1C(=O)OC.Cl,280
26,CC(=O)Nc1c(I)cc(I)c(C(=O)O)c1I,94
